Out of some 360,000 compounds screened, about 16,000 (4.4%) were called active. The shares of active, inactive and inconclusive entries below differ from those in the screen. The call rests on the fitted dose curve; in most records, active means well fitted inhibition curve with a large enough effect; inconclusive means small, poorly fitted or top-dose-only effect; inactive means no such curve, though single readings can be large or run the other way. Potencies beside an inconclusive call are fits to weak or partial responses and may not hold up.
These compounds were tested against Bromodomain adjacent to zinc finger domain protein 2B (Homo sapiens) (UniProt Q9UIF8) (assay: qHTS Assay for Inhibitors of BAZ2B). Settings: AlphaScreen BAZ2B-H3K14Ac peptide displacement; activity change, negative = inhibition: at 114 µM (top of the series) unless noted.
Method in brief: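 BAZ2B 50 nM plus b-H3(5-23)K14Ac 50 nM, PBS pH 7.4/0.01% Tween-20, 30 min RT; compound added (max 110 uM), 30 min RT; streptavidin donor/Ni-chelate acceptor beads 10 ug/mL final, 20 min dark; AlphaScreen read.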
Further: nearly all actives have a fitted effect of over 60% in size.
On the % scale 0 is the no-effect control and ±100 the full control effect; potency means the concentration at half of the fitted maximal effect; tags describe the fitted curve by direction and shape.

UniProt Q9UIF8, sequence (Q9UIF8 whole entry, looked up, the tested form may be a part): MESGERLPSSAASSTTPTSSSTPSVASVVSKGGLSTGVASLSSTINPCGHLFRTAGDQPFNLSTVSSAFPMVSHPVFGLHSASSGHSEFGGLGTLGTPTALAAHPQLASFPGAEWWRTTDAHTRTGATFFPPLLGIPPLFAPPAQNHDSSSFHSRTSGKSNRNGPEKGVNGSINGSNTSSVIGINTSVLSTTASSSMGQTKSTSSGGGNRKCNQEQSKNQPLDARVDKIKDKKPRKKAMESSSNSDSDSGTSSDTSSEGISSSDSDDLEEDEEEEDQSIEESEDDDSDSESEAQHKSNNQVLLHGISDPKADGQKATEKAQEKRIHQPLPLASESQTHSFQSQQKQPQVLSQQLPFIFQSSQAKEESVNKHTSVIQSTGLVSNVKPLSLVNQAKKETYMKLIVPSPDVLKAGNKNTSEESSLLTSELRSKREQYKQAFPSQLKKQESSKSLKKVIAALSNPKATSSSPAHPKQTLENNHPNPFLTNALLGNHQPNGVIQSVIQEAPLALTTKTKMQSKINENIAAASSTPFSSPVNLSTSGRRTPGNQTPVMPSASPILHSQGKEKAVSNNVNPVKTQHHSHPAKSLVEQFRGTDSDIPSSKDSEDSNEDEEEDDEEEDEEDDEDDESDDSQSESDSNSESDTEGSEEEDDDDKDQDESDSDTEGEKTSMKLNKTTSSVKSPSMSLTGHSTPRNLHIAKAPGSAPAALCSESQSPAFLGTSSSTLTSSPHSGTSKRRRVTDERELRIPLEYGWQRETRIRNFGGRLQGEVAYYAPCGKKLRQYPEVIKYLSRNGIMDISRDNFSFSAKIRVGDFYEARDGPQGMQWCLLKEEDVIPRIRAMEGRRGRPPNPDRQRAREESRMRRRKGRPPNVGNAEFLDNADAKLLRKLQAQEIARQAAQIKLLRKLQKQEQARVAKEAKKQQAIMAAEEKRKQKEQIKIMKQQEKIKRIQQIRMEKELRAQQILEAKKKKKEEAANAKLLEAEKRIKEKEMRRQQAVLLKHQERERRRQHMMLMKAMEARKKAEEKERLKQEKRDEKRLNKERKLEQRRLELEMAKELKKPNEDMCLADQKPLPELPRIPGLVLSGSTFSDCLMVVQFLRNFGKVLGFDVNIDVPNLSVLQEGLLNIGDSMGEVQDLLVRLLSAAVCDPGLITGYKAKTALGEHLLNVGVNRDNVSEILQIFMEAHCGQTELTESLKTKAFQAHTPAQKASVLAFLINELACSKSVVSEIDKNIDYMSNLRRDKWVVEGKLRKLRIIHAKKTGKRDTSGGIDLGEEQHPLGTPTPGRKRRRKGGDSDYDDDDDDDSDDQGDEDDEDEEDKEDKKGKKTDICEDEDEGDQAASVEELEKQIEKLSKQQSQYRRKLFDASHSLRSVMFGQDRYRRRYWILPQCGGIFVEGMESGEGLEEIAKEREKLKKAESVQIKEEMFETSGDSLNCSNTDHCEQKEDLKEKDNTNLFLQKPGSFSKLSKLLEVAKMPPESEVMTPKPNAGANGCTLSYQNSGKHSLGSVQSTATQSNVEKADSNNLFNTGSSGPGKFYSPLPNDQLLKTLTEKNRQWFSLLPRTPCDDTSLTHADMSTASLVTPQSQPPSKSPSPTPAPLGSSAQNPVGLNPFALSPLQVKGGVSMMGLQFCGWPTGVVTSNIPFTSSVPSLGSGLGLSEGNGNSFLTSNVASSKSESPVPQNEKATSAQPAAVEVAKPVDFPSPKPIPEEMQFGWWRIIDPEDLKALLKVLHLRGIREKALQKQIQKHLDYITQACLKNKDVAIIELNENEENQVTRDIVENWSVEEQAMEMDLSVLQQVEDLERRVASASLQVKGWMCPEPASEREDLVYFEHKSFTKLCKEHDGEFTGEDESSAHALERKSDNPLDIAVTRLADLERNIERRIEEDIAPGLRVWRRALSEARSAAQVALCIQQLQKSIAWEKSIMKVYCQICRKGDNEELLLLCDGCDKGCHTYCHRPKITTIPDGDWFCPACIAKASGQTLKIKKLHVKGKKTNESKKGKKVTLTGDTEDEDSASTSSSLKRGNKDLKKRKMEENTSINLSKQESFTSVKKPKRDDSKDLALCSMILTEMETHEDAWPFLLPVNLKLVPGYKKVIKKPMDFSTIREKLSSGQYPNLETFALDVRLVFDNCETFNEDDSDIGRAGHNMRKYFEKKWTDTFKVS

Structure (SMILES)	activity change, negative = inhibition	Potency
CC(C(=O)Nc1ccc(OCc2ccccc2)cc1)N1CCCC1 (centres undefined)	inactive: 1.6%	
CCOCCCn1c(=S)[nH]c2cc(C(=O)N3CCC(C(N)=O)CC3)ccc2c1=O		inconclusive: 89.1 µM [inhibitor, single point]
CSC1=NC2C(N1)N(C)C(=O)N2C (centres undefined)		active: 35.5 µM
COc1ccc(N2C(C)=CS/C2=C(/C#N)c2nnc(N3CCOCC3)n2-c2ccccc2)cc1		inconclusive: 89.1 µM [inhibitor, single point]
CCC1CN(C(=O)N2CCC(C(=O)NCCc3ccccc3C)CC2)c2ccccc2O1 (centres undefined)		active: 79.4 µM
O=C(NC(=S)NN1CCCCC1c1cccnc1)c1ccc(Br)cc1 (centres undefined)	inactive: 0.124%	
COc1cc(/C=C(\C#N)C(=O)Nc2cccc(C(=O)O)c2)ccc1OCc1ccc(Cl)cc1		active: 44.7 µM
CNCCCOc1ccc(Cl)cc1C(C)(C)C		active: 31.6 µM
CCn1c(C)[n+](CCCS(=O)(=O)[O-])c2cc(Cl)c(Cl)cc21	inactive: -12%	
CCc1cccc(NC(=O)CCCCCC2NC(=O)NC2C)c1 (centres undefined)		active: 0.794 µM
COc1ccc(CN2CCN(C(=O)c3cccs3)CC2)cc1Br		active: 50.1 µM
COc1ccc(-n2c(Cc3cccn3C)nnc2SCC(=O)Nc2ccc(F)cc2)cc1		inconclusive: 89.1 µM [inhibitor, single point]
CCC1(C(=O)OC)NC(c2ccco2)C2C(=O)N(c3ccc(F)cc3)C(=O)C21 (centres undefined)	inactive: -21.8%	
CCOc1cccc(CC(=O)N2CCc3c([nH]c4ccccc34)C2c2ccccc2)c1OCC (centres undefined)		inconclusive: 22.4 µM [inhibitor, full curve]
CCC1CCCCN1CCCNC(=O)c1ccc2c(c1)N(Cc1ccccc1)C(=O)c1ccccc1S2(=O)=O (centres undefined)		inconclusive: 79.4 µM [inhibitor, partial curve]
CCC(CC)NC(=O)/C=C/c1ccccc1Cl	inactive: 12.9%	
CCN(CC)c1ccc(CN(C(=O)Cc2coc3ccc(C)cc23)C2CCS(=O)(=O)C2)cc1 (centres undefined)		active: 10 µM
CCOC(=O)C1=C(COC(=O)/C=C/c2ccc(SC)cc2)NC(=O)NC1C (centres undefined)	inactive: 9.97%	
O=C(CSc1ccc(-c2ccco2)nn1)c1cccc([N+](=O)[O-])c1	inactive: -27.3%	
CCn1ccnc1C(O)c1cccc2ccccc12 (centres undefined)		inconclusive: 89.1 µM [inhibitor, single point]
O=C(CC1SC(=Nc2ccccc2)N(CCc2c[nH]c3ccccc23)C1=O)Nc1ccccc1F (centres undefined)		inconclusive: 44.7 µM [inhibitor, partial curve]
c1ccc(-c2nc(-c3ccncc3)n[nH]2)nc1		active: 2.51 µM
CCN(C(=O)c1cc2c(=O)oc3ccc(C)cc3c2s1)c1cc(OC)ccc1OC		inconclusive: 28.2 µM [inhibitor, single point]
COc1cc(NS(=O)(=O)c2ccc(Nc3nc(-c4cccc([N+](=O)[O-])c4)cs3)cc2)nc(OC)n1		active: 44.7 µM
Cc1[nH]c2ccccc2c1/C=N/Nc1ccccn1		active: 35.5 µM

Structure (SMILES)	activity change, negative = inhibition	Potency
N/C(=N\OC(=O)Cc1ccccc1)c1ccc([N+](=O)[O-])cc1		inconclusive: 70.8 µM [inhibitor, partial curve]
O=C(CCN1C(=O)S/C(=C\c2ccccc2)C1=O)Nc1ccc(S(=O)(=O)Nc2nccs2)cc1		inconclusive: 31.6 µM [inhibitor, full curve]
Nc1nonc1C(=O)N/N=C/c1cc(Br)ccc1O		active: 7.94 µM
O=C(Nc1ccccc1CC[N+](=O)[O-])N1CCN(c2ccccc2)CC1		inconclusive: 79.4 µM [inhibitor, partial curve]
COc1ccc(CCNC(=S)NCc2cccs2)cc1OC	inactive: -13.3%	
COc1cc(C(=S)N2CCN(c3ccccc3Cl)CC2)cc(O)c1O		active: 50.1 µM
COc1ccc(NC(=O)CSc2ncccc2C(=O)O)cc1OC		active: 56.2 µM
CCN(CC)CCNC(=O)c1ccc2c(c1)NC(=O)C(CS(=O)(=O)Cc1cccc(Br)c1)N2 (centres undefined)	inactive: -36.9%	
c1ccc(Nc2nnc(-c3cccnc3)s2)cc1		inconclusive: 89.1 µM [inhibitor, single point]
CC1CCCCC1NC(=S)NC(=O)c1cccs1 (centres undefined)		inconclusive: 89.1 µM [inhibitor, single point]
COc1ccc(N2CCN(C(CNC(=O)c3c(F)cccc3F)c3ccc4c(c3)OCO4)CC2)cc1 (centres undefined)		inconclusive: 35.5 µM [inhibitor, partial curve]
O=C1OC(c2ccccc2)/C(=C(/O)c2ccc(Cl)cc2)C1=O (centres undefined)		inconclusive: 79.4 µM [inhibitor, single point]
Cc1ccc(/C([O-])=C(/C(=S)NCc2ccccc2)[n+]2ccccc2)cc1[N+](=O)[O-]		inconclusive: 44.7 µM [inhibitor, partial curve]
NC(=O)c1ccc(N2CCN(c3ccccc3O)CC2)c([N+](=O)[O-])c1		inconclusive: 44.7 µM [inhibitor, partial curve]
COc1cccc(N2CCN(C(=O)c3[nH]c(C)c(C(C)=O)c3C)CC2)c1		inconclusive: 79.4 µM [inhibitor, single point]
O=C(COc1ccc(Br)cc1Br)NC(=S)N1CCCc2ccccc21		active: 50.1 µM
OC1(c2ccccn2)COc2ccccc2O1 (centres undefined)		inconclusive: 89.1 µM [inhibitor, single point]
COc1ccc(C(=O)Nc2ccccc2C(=O)NC(Cc2ccc(O)cc2)C(=O)NNC(=O)c2ccncc2)cc1 (centres undefined)		inconclusive: 56.2 µM [inhibitor, partial curve]
COc1ccc(C(=O)NC(=S)Nc2nc(-c3ccc(OC)c(Br)c3)cs2)cc1Br		inconclusive: 100 µM [inhibitor, partial curve]
Cc1ccc(-n2c(N)cc(=O)nc2SCC(=O)N2CCN(c3ccccc3)CC2)cc1		inconclusive: 79.4 µM [inhibitor, single point]
COc1ccccc1CN1CCCC(N2CCN(c3ccc(F)cc3)CC2)C1 (centres undefined)	inactive: -2.71%	
COc1cc(CNc2ccccc2SC)ccc1O		inconclusive: 79.4 µM [inhibitor, single point]
O=C(COc1cccc2cccnc12)N/N=C/c1cccn1-c1ccc(F)cc1		active: 28.2 µM
CC(C)N(Cc1nccn1C)C(=O)c1cc(COc2ccc(F)cc2Cl)on1	inactive: -18.8%	
COc1ccc(OC)c(CN2CCN(C(=O)c3ccco3)CC2)c1		inconclusive: 89.1 µM [inhibitor, single point]

Structure (SMILES)	activity change, negative = inhibition	Potency
Cc1[nH]cnc1C(=O)N/N=C/c1c(Cl)cccc1Cl		inconclusive: 89.1 µM [inhibitor, single point]
Cc1ccc(O)c(NC(=O)C2=CC(c3cccs3)=NS(=O)(=O)N2C)c1		inconclusive: 50.1 µM [inhibitor, partial curve]
COc1cccc(CNC(=O)c2cc3cc(C)ccc3n2C)c1	inactive: 2.17%	
COc1cccc(CN2CCCN(Cc3ccc(F)cc3)S2(=O)=O)c1	inactive: 66.7%	
CCCOc1ccc(C(=O)Nc2cc(-c3nc4ccccc4[nH]3)ccc2C)cc1	inactive: -0.542%	
CCOc1ccc(C2c3[nH]c4ccccc4c3C[C@H]3C(=O)N(C4CC4)CC(=O)N23)cc1OC (some centres undefined)		inconclusive: 79.4 µM [inhibitor, single point]
CCCn1c2ccccc2c2cn[nH]c(=O)c21	inactive: -2.19%	
CCCN1C(=O)/C(=C\C=C2/C=CN(CC)c3ccccc32)SC1=S		inconclusive: 89.1 µM [inhibitor, single point]
CCOC(=O)Cc1nn(C)c(=O)c2ccccc12	inactive: 4.02%	
O=C(O)c1ccccc1N/N=C/c1cc(Br)cc(Br)c1O		active: 44.7 µM
CCOC(=O)C(=O)c1c(-c2ccc(C)cc2)nc2ccccn12		inconclusive: 89.1 µM [inhibitor, single point]
COCCOC(=O)C1=C(C)NC(=O)NC1c1ccco1 (centres undefined)		inconclusive: 89.1 µM [inhibitor, single point]
O=C(O)CSc1nnc(CNc2ccc(Cl)cc2)n1Cc1ccccc1		inconclusive: 100 µM [inhibitor, single point]
COC/C=C/C1=CC2=CC(=O)C(C)(OC(=O)c3cnc4ccccc4n3)C(=O)C2=CN1C1CCCCC1 (centres undefined)		inconclusive: 89.1 µM [inhibitor, single point]
Cc1ccc(C)c(NC(=O)CN2C(=O)CNC2=O)c1		inconclusive: 89.1 µM [inhibitor, single point]
Cc1nc(N2CCCCC2)c2ccsc2n1		active: 5.01 µM
CN1CCN(CCN2CCn3c2nc2ccccc23)CC1		inconclusive: 89.1 µM [inhibitor, single point]
Cc1nc(N2CCCCC2)sc1C(=O)c1ccc(SCCO)c([N+](=O)[O-])c1		active: 39.8 µM
COc1ccc(CCNC(=O)c2c(Nc3ccccc3C)sc(C(=O)c3ccccc3)c2N)cc1OC		inconclusive: 35.5 µM [inhibitor, partial curve]
CCOc1cc(N2CCOCC2)c(OCC)cc1NC(=O)c1ccc(OC)cc1		inconclusive: 70.8 µM [inhibitor, single point]
CCCOc1ccc(-c2nc(N3CCN(C)CC3)c3ccccc3n2)cc1		inconclusive: 50.1 µM [inhibitor, partial curve]
COC(=O)C(NC(=O)c1ccccc1)=C1CCCCC1		inconclusive: 89.1 µM [inhibitor, single point]
CN1CC[C@]2(CCN3CCc4c(oc5ccccc45)[C@@H]3C2)N(C)C1=O	inactive: 8.02%	
CCn1cc(C(=O)NCC(OC)OC)c(=O)c2cc(S(=O)(=O)N3CCC(C)CC3)ccc21	inactive: -5.53%	

Source: PubChem BioAssay AID504333 (National Center for Advancing Translational Sciences (NCATS), 2011)
